# Test results taken from paper PMC4336329 (PLoS ONE, 2015).
# Screen size: about 310,000 compounds; about 14,000 (4.5%) showed an effect of 50% or more. Effects have a minus sign here. The list shows a part of the results.
# Molecular target: human ether-à-go-go-related gene (hERG) potassium channel (human, UniProt Q12809)
# Assay: primary screen, population patch clamp on CHO cells stably expressing hERG
# 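Further: peak tail current of the secondary pulse compared with the same well before compound.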
# Chain of human ether-à-go-go-related gene (hERG) potassium channel (Q12809 whole entry, looked up): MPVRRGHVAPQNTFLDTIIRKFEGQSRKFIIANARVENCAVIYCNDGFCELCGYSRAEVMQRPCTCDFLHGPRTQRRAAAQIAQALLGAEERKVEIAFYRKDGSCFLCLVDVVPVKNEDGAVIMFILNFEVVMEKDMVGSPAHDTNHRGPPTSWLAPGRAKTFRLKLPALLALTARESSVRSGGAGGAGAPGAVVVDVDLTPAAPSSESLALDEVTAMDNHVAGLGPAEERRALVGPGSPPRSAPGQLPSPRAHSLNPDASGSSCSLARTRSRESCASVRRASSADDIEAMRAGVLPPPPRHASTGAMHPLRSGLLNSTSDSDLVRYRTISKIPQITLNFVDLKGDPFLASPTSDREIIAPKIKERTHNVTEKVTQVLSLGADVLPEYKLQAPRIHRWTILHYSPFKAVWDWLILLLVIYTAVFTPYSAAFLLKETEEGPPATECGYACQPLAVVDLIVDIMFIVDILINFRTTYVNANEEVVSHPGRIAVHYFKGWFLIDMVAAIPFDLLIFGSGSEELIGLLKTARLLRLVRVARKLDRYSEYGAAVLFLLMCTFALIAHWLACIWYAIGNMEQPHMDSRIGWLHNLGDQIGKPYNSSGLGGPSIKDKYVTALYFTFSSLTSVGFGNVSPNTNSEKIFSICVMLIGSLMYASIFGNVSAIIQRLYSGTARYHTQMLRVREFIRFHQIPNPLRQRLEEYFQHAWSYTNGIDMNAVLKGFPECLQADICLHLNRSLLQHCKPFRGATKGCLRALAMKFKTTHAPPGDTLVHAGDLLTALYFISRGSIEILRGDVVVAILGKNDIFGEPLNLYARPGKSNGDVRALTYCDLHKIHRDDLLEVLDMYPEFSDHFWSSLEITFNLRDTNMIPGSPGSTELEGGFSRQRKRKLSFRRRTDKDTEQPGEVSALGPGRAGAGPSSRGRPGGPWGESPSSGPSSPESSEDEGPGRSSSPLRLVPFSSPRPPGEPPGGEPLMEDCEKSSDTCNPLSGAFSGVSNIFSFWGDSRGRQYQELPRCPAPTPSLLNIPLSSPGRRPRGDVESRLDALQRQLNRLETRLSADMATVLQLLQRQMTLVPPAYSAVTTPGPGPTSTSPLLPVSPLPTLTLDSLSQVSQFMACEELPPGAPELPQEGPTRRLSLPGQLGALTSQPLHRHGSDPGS
row,SMILES,"hERG current change (%, negative = inhibition) at 10uM"
1,CC(=O)Nc1cc(NC(C)=O)c(CC(C)C)s1,10.8%
2,CC(CNC(=O)CCS(=O)(=O)c1cc2c(cc1Cl)NC(=O)CO2)c1ccccc1 (centres unmarked),-3.94%
3,COc1ccc(C(=O)COC(=O)C(CCSC)NC(=O)COc2ccccc2)cc1 (centres unmarked),-31.2%
4,Cc1sc2nc(CSc3n[nH]c(N)n3)[nH]c(=O)c2c1C,-1.74%
5,O=C(COc1ccc([N+](=O)[O-])cc1)Nn1cnnc1,17%
6,Cc1cccc(OCC(=O)NCCCNC(=O)c2ccco2)c1,3.51%
7,COc1ccc(OC)c(S(=O)(=O)N2CCCC(C(=O)NCCN3CCOCC3)C2)c1 (centres unmarked),21.2%
8,c1ccc(CN2c3ccccc3-c3nc4ccccc4n3C2c2ccccn2)cc1 (centres unmarked),-6.27%
9,CN1CCN(S(=O)(=O)c2ccc(N(C)Cc3cccc(F)c3)nc2)CC1,-5.07%
10,C=CCOc1ccc(/C(O)=C2/C(=O)C(=O)N(CCCn3ccnc3)C2c2ccco2)cc1 (centres unmarked),23%
11,N#Cc1c(-c2ccccc2)cc(C2CC2)nc1SCC(=O)O,10.2%
12,O=C(CN1c2cccc3cccc(c23)S1(=O)=O)Nc1cccc(S(=O)(=O)N2CCOCC2)c1,-1.33%
13,O=C(/C=C/c1ccc(O)cc1)OCc1occc(=O)c1O[C@@H]1OC(CO)[C@@H](O)[C@H](O)[C@@H]1O (some centres unmarked),17.3%
14,Cc1ccc(NC(=O)CC(NCCN2CCOCC2)C(=O)O)cc1Cl (centres unmarked),14.3%
15,CCCCNC(=O)C(CC)Sc1nc2sc(C(=O)OC)c(C)c2c(=O)n1N (centres unmarked),-7.81%
16,O=C(N/N=C/c1ccc2c(c1)OCO2)c1ccc(COc2cccc3cccnc23)cc1,-18.6%
17,CCCCCCC1(C)NC(=S)N(c2ccccc2)N1 (centres unmarked),4.15%
18,Cc1nnc(SCCC(=O)Nc2ccc(Cl)cc2)o1,17.4%
19,CCN(CC)S(=O)(=O)c1cc(NC(=O)CNc2c(C)n(C)n(-c3ccccc3)c2=O)ccc1C,14.4%
20,C#CC(=O)N(c1ccc(OC)cc1OC)C(C(=O)NC1CCCC1)c1cccs1 (centres unmarked),-1.28%
21,Cc1ccc(NC(=O)c2cc([N+](=O)[O-])ccc2NCc2cccnc2)cc1,-82.7%
22,Cc1cc(C)nc(SCc2nc3nc(C)cc(C)n3c2Br)n1,-22.6%
23,CN(C)S(=O)(=O)N1CCCC(C(=O)c2ccc(-c3ccccc3)cc2)C1 (centres unmarked),6.78%
